The campaign covered roughly 110,000 compounds. About 230 (0.21%) showed an effect of 50% or more. The list shows a part of the results.
Target: DPAP1 (Plasmodium falciparum, UniProt Q8IIJ9)
Experiment: primary screen, percent inhibition; read by cleavage of a fluorogenic dipeptide substrate; higher = more effect of the substance
Set-up: species or system P. falciparum D10 trophozoite lysates; single well
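Note: 30 min substrate incubation versus DMSO and 10 µM JCP410 controls.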

DPAP1, sequence (Q8IIJ9 whole entry, looked up): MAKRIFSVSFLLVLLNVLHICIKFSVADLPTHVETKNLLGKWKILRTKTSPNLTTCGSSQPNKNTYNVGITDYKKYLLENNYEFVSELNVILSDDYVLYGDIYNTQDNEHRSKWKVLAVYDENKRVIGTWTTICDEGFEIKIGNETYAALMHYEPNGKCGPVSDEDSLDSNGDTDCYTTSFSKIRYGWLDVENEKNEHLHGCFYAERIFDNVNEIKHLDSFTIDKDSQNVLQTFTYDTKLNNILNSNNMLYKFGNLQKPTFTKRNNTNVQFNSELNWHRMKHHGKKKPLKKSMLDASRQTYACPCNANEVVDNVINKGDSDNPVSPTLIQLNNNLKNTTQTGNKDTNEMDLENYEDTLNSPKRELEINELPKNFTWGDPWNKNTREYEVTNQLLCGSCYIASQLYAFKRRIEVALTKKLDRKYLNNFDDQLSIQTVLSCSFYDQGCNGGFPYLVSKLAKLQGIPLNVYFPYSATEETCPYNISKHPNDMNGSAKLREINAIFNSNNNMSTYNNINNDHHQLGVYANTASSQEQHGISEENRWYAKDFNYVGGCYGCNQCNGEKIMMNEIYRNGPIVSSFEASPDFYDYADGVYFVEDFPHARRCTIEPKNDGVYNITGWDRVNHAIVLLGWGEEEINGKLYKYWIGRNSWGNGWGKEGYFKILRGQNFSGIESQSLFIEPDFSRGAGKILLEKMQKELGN

Row | Structure (SMILES) | % Inhibition @ 10 uM
1 | Cc1cc(C)c2c(-n3cccc3)c(C(=O)NC3CCN(Cc4ccccc4)CC3)sc2n1 | -2.85%
2 | CNC(C)C(=O)C12CC3CC(CC(C3)C1)C2 (stereo not shown) | -1.77%
3 | N#CCc1ccc(NC(=O)c2ccc3c(c2)OCO3)cc1 | -4.12%
4 | N#Cc1c(C(F)(F)F)cc(-c2cccs2)nc1SCC(=O)Nc1ccccn1 | 2.44%
5 | CC(C)CCNC(=O)c1ccc(CSCc2ccccc2Cl)o1 | 1.62%
6 | CCn1cc(CNC(=O)c2cccc(Cl)c2)c(C)n1 | -1.96%
7 | Cc1oc2ncn3c(C)nnc3c2c1C(=O)O | -2.4%
8 | CC1=C(C(=O)Nc2cc(C)ccn2)C(c2cnn(C)c2)C2=C(O)CCCC2=N1 (stereo not shown) | -0.413%
9 | Cc1nccc2nc(O)c(C(=O)NCCCSC3CCCCC3)cc12 | 3.93%
10 | Cc1onc(-c2ccccc2Cl)c1C(=O)NC12CC3CC(CC(C3)C1)C2 | -7%
11 | CC(C)CCNC(=O)c1nnc(Cc2c(F)cccc2Cl)o1 | -0.0709%
12 | COc1ccc(CCNC(=O)C2CCN(S(=O)(=O)N3CCOCC3)CC2)cc1OC | -1.34%
13 | CCOC(=O)N1CCN(C(=O)c2ccc(CS(=O)(=O)c3ccc(Br)cc3)o2)CC1 | 3.77%
14 | COC(=O)c1cc(-c2ccccc2)no1 | 22.9%
15 | COc1ccc(-c2ccc(C(=O)N3CCOCC3)cc2)cc1 | 85.3%
16 | COc1ccc(-c2csc(NC(=O)CSc3nc(O)cc(-c4ccccc4)n3)n2)cc1 | 3.87%
17 | CCOC(=O)C1CCN(CC2CC=CCC2)CC1 (stereo not shown) | -6%
18 | CC(C)(C)c1ccc(C(=O)NCCC(=O)NCCC2=CCCCC2)cc1 | -0.256%
19 | Cc1ccc(-c2nc(NC(=O)CSc3nc(C)nc4sc5c(c34)CCC5)ns2)cc1 | -1.33%
20 | O=C(COc1ccc(S(=O)(=O)NC2CCCCC2)cc1)NCC1CCCO1 (stereo not shown) | 5.49%
21 | CCCCC(CC(NC(=O)OCc1ccccc1)C(=O)NCC#N)c1ccccc1 (stereo not shown) | 2.92%
22 | CC(C)CCNC(=O)CCc1nnc2n(CCCOC(C)C)c(=O)c3ccccc3n12 | -3.21%
23 | Cc1c(CNC2CCC(C)CC2)c(C(=O)O)c(C)n1Cc1c(F)cccc1Cl (stereo not shown) | -0.23%
24 | CN1CCN(c2nc3c(c(=O)[nH]c(=O)n3C)n2CC(=O)c2ccccc2)CC1 | 0.331%
25 | CCCCN(c1cc(OC)c(OC)c(OC)c1)C1CC2CCC(C1)N2C (stereo not shown) | -1.66%

Row | Structure (SMILES) | % Inhibition @ 10 uM
26 | CCN(CC)C(=O)C1CC(c2ccc(F)cc2)=NO1 (stereo not shown) | 1.24%
27 | CCCC(CCC)C(=O)Nc1ccc2c(c1)Nc1ccccc1CC2 | 3.8%
28 | COc1ccc2c(CNCC(C)c3ccccc3)c(C(=O)O)[nH]c2c1 (stereo not shown) | -2.97%
29 | CCCc1ccc(C#N)c(SCC(=O)Nc2ccc(OCC)cc2)n1 | 2.38%
30 | CCN1CCN(C(=O)c2cc(-c3ccc(OC)cc3)[nH]n2)CC1 | 0.44%
31 | CCOc1cc2c(cc1OCC)C(c1ccc(OC)cc1OC)NCC2 (stereo not shown) | 8.29%
32 | COc1cc2nc(SCc3ccccc3F)n3nc(CCn4nc(C)cc4C)nc3c2cc1OC | -0.499%
33 | N#CC1(NC(=O)[C@H](Cc2c(F)cccc2F)NC(=O)c2ccc(-c3ccccc3Cl)nc2)CCSCC1 | -3.48%
34 | CC(=O)Nc1nonc1-c1nc2ccccc2n1CC#N | 3.05%
35 | CN(C)Cc1nc(O)c2c(n1)-c1ccccc1CC21CCCCC1 | 3.98%
36 | COc1ccc(C2C(C#N)=C(N)Oc3[nH]c(C)nc32)cc1OCc1ccccc1 (stereo not shown) | -0.725%
37 | Cn1c(O)c(/C=N/c2cccc(CO)c2)c2ccccc21 | -7.08%
38 | CCC[C@H](NC(=O)C1(NC(=O)N2CCN(C(C)(C)C)CC2)CCCCC1)C(=O)c1nnc(-c2ccc(OC)cc2)o1 | -4.72%
39 | CCOc1ccc(-c2cc(C(=O)N3CCCC3)c3ccccc3n2)cc1 | 0.316%
40 | CCN(CC)S(=O)(=O)c1cc(C(=O)ONC(=O)c2ccc(OC(F)F)cc2)ccc1Cl | 3.66%
41 | Cc1ccc(Cn2c(C(=O)O)c(CNC(C)CCc3ccccc3)c3ccccc32)cc1 (stereo not shown) | 6.59%
42 | Cc1cccc(OCCCCCN2CCCCC2)c1C | -1.25%
43 | CCc1ccc(C2C(C(=O)c3ccc4c(c3)OCCO4)=C(O)C(=O)N2Cc2cccnc2)cc1 (stereo not shown) | 1.64%
44 | COc1ccc2[nH]c3c(c2c1)CCNC3c1cc(OC)c(OC)c(OC)c1 (stereo not shown) | -4.93%
45 | CN(CCNC(=O)c1cc2ccc3cccnc3c2[nH]1)C1CCCCC1 | 5.73%
46 | Cc1ccc(S(=O)(=O)Nc2ccnc(C(=O)Nc3nc4ccc(C)cc4s3)c2)cc1 | -2.19%
47 | CCOC(=O)C1=C(C)N=c2s/c(=C\c3ccco3)c(=O)n2C1c1ccccc1 (stereo not shown) | 3.05%
48 | COc1ccc(C2=NN3C(C2)c2ccccc2OC32CCC(C)CC2)cc1OC (stereo not shown) | -3.14%
49 | COCCCNc1sc(S(=O)(=O)c2ccc(C)cc2)nc1S(=O)(=O)c1ccc(C)cc1 | 5.5%
50 | Cc1ccccc1S(=O)(=O)Cc1ccc(C(=O)N2CCN(c3ncccn3)CC2)o1 | 3.93%

Row | Structure (SMILES) | % Inhibition @ 10 uM
51 | CCOc1cc2c(cc1/C=C1/SC(Nc3cccc(C)c3)=NC1=O)OCO2 | 0.851%
52 | CCc1ccccc1NC(=O)CN1CCCC(C)C1 (stereo not shown) | 2.76%
53 | COCCNC(=O)C1=C(C)C(=O)OC12CCN(C(C)=O)CC2 | -0.769%
54 | CCCC1CCc2c(sc(NC(=O)c3ccc(Br)o3)c2C(N)=O)C1 (stereo not shown) | 0.189%
55 | Cc1cccc(NC(=O)c2cccc3c2C(=O)c2ccccc2-3)c1 | 3.1%
56 | Cc1[nH]nc2c1C(c1ccc(OCc3cccc(F)c3)cc1)C(C#N)=C(N)O2 (stereo not shown) | -3.46%
57 | COc1ccc(/C(O)=C/C=N/c2cc(Cl)ccc2Cl)cc1 | -0.725%
58 | CCO/C(O)=C1\C(C)=NC(=S)NC1c1ccc(Cl)cc1Cl (stereo not shown) | -0.597%
59 | COc1cc2ncc(C(=O)c3ccccc3)c(N3CCCCC3)c2cc1OC | -1.53%
60 | CCn1nc(C)c(N2C(=O)c3cccc4c(Br)ccc(c34)C2=O)c1C | 2.09%
61 | CN1CCC(N2CCCC(C(N)=O)C2)CC1 (stereo not shown) | 1.43%
62 | COc1ccc(CN2CCN(c3cccc(C(F)(F)F)c3)CC2)c(OC)c1 | 3.1%
63 | CC(=O)c1cccc(NC(=O)c2cccs2)c1 | -2.28%
64 | N#CCNC(=O)C(NC(=O)c1ccccc1)SC1CCCCC1 (stereo not shown) | -1.83%
65 | CCN(CCN(C)C)Cc1ccc(Cl)c(Cl)c1 | 1.62%
66 | NC(=O)C1CCCN(CC(c2ccccc2)c2ccccc2)C1 (stereo not shown) | 2.1%
67 | COc1ccccc1CCNC(=O)c1nc(CS(=O)(=O)c2ccccc2)no1 | 5.45%
68 | COc1ccc(NC(=O)Nc2ccccc2C(F)(F)F)cc1 | -5.65%
69 | CN1C2CCC1CC(NCCN1CCOCC1)C2 (stereo not shown) | -0.0908%
70 | Cc1ccc2c(c1)c1c(n2C)C(C(N)=O)CCC1 (stereo not shown) | -1.69%
71 | CCOC(=O)N1CCN(c2ncnc3c2c(-c2ccccc2)cn3-c2ccccc2)CC1 | 0.925%
72 | CC1(C)CC(=O)C2=C(C1)N(c1cccnc1)C(N)=C(C#N)C2c1ccc(C(F)(F)F)cc1 (stereo not shown) | 0.674%
73 | O=C(Nc1ccc2oc(-c3ccc(Cl)cc3Cl)nc2c1)c1cccc2ccccc12 | -0.771%
74 | COc1ccc(Cc2nn3c(-c4ccc(F)cc4)nnc3s2)cc1 | 2.89%
75 | COc1ccccc1/C=C1N=C(/C=C/c2ccccc2OC)OC\1=O | 13.2%

Row | Structure (SMILES) | % Inhibition @ 10 uM
76 | CCn1cc(/C=C(\NC(=O)c2cc(OC)c(OC)c(OC)c2)C(=O)NCCO)c2ccccc21 | 1.64%
77 | CC(C)=CCCCCCCN(C)CCc1ccccn1 | -0.292%
78 | CCc1c(C)sc(NC(=O)Nc2ccc(Cl)c(Cl)c2)c1C(N)=O | -1.88%
79 | CC(=O)c1ccccc1NC(=O)C1CCC(C(=O)Nc2ccccc2C(C)=O)S1 (stereo not shown) | -1.91%
80 | CCOc1cc(C(=O)N2CCC3(CC2)N=C(c2ccc(Cl)cc2)C(=O)N3)cc(OCC)c1OCC | 18.4%
81 | CC(C)OP(=O)(OC(C)C)C(Nc1ccc2ccccc2c1)c1ccccc1 (stereo not shown) | 4.12%
82 | CC1(C)CNC(C)(C)C2c3ccccc3NC21 (stereo not shown) | -1.88%
83 | CCN1CCC(N2CCCC(C(=O)N(CC)CC)C2)CC1 (stereo not shown) | 2.7%
84 | Cc1ccc(S(=O)(=O)N(CC(=O)N2CCCCCC2)Cc2ccc(Br)cc2)cc1 | 1.86%
85 | CCN(CC)C(=O)C1=C(C)N=C(S)NC1c1c(F)cccc1Cl (stereo not shown) | -2.72%
86 | CCc1ccc(CN2CCN(C(=O)c3cc(OC)cc(OC)c3)CC2)cc1 | -2.87%
87 | O=S(=O)(c1ccc(-c2cs/c(=N\c3ccccc3)n2CCN2CCOCC2)cc1)N1CCCC1 | 3.45%
88 | Cc1ccccc1C1NC(c2ccccc2C)C(C)C(=O)C1C (stereo not shown) | 5.75%
89 | COc1cc(/C=C/c2nc(C#N)c(NCCCn3ccnc3)o2)cc(OC)c1OC | 0.895%
90 | CC1=C(C(=O)Nc2cccnc2)C(c2ccc(C#N)cc2)n2nc(CCCO)nc2N1 (stereo not shown) | -1.16%
91 | Cc1nn(C(C)C(=O)NC(C)C)c(=O)c2nn(-c3ccccc3)c(C)c12 (stereo not shown) | 3.66%
92 | N#C/C(=C/c1ccc(-c2ccc(C(N)=O)cc2)o1)c1nc2ccccc2[nH]1 | -0.941%
93 | O=C(O)CCc1ccc(-c2ccc(F)cc2)n1NC(=O)c1ccccc1Br | -0.169%
94 | CC/N=C1\S/C(=C/c2cc3c(cc2OCC)OCO3)C(=O)N1CC | 0.727%
95 | CCOC(=O)c1sc(NC(=O)CCN2CCCCC2)c(C(=O)OCC)c1C | 0.565%
96 | O=C(NC(c1ccccc1)c1ccccc1)c1cc2ccccc2oc1=O | -4.35%
97 | CC(C)Oc1ccc(CNC(=O)c2cc3oc4ccccc4c3n2C)cc1 | -7.02%

— publication PMC6919601, “Identification of Plasmodium dipeptidyl aminopeptidase allosteric inhibitors by high throughput screening” (PLoS ONE, 2019)
